# From ChEMBL document CHEMBL1132172, “Synthesis of a series of stromelysin-selective thiadiazole urea matrix metalloproteinase inhibitors” (J Med Chem, 1999)
# pKi: −log10 of the molar value.
# Target: Stromelysin-1 (Homo sapiens, UniProt P08254)
# Sequence (P08254 whole entry): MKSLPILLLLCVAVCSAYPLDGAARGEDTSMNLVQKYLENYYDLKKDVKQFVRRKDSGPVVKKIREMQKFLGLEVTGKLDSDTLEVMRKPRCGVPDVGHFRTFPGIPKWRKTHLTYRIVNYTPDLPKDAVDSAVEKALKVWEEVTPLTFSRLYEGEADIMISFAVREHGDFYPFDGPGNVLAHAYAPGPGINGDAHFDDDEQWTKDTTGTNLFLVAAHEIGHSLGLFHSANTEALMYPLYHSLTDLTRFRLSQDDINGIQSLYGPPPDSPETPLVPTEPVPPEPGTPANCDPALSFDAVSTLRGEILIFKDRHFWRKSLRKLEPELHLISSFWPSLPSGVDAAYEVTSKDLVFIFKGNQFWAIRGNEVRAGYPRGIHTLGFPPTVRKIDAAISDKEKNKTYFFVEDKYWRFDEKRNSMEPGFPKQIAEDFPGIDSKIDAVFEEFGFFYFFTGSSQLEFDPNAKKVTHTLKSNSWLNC
row,SMILES,pKi
1,O=C(Nc1nnc(S)s1)N[C@@H](Cc1ccccc1)C(=O)NCc1ccccc1,6.29
2,COC(=O)[C@H](Cc1ccccc1)NC(=O)Nc1nnc(S)s1,6.54
3,O=C(NCc1ccccc1)Nc1nnc(S)s1,4.80
4,O=C(Nc1nnc(S)s1)N[C@@H](Cc1ccccc1)C(=O)N1CCCC1,6.18
5,O=C(NCCCc1ccccc1)Nc1nnc(S)s1,4.80
6,CC(C)NC(=O)[C@H](Cc1ccccc1)NC(=O)Nc1nnc(S)s1,5.89
7,O=C(Nc1nnc(S)s1)N[C@@H](Cc1ccccc1)C(=O)O,5.49
8,O=C(Nc1nnc(S)s1)N[C@@H](Cc1c(F)c(F)c(F)c(F)c1F)C(=O)N1CCN(c2ccccn2)CC1,7.85
9,O=C(NCCc1ccccc1)Nc1nnc(S)s1,5.15
10,COc1ccc(NC(=O)Nc2nnc(S)s2)cc1,4.16
11,CN(C)C(=O)[C@H](Cc1ccccc1)NC(=O)Nc1nnc(S)s1,5.64
